# Reference: paper PMC11995724, “Antibiotic target discovery by integrated phenotypic and activity-based profiling of electrophilic fragments” (Cell chemical biology, 2025)
# In all, about 3,200 compounds went through this assay and about 110 (3.4%) showed an effect of 50% or more. Some of the results follow.
# Tested on: T1, V. cholerae SAD30
# T1 construct: SAD30
# Set-up: species or system S. aureus MSSA476 (TSB) or V. cholerae SAD30 (LB); 384-well bacterial growth screen at 25 uM, OD600 relative to DMSO control
# Conditions: relative growth, OD600, LB; 25 µM; inhibitor
row,Compound,% of control remaining [%]
1,"C=CC(=O)NCc1ccc(C(=O)N2CCCC2C(=O)N(C)C)cc1 (stereo not shown) [2-D22, N,N-dimethyl-1-{4-[(prop-2-enamido)methyl]benzoyl}pyrrolidine-2-carboxamide]",111.194
2,"CC(Cl)C(=O)N1CCCC1c1nc(-c2ccccc2)n[nH]1 (stereo not shown) [7-I09, 2-chloro-1-[2-(3-phenyl-1H-1,2,4-triazol-5-yl)pyrrolidin-1-yl]propan-1-one]",77.4492
3,"C=CC(=O)NCc1ccc2oc(=O)n(C)c2c1 [2-L15, N-[(3-methyl-2-oxo-2,3-dihydro-1,3-benzoxazol-5-yl)methyl]prop-2-enamide]",88.6519
4,"O=C(CCl)Nc1cc(C2CC2)nn1-c1ccccc1 [4-I15, 2-chloro-N-(3-cyclopropyl-1-phenyl-1H-pyrazol-5-yl)acetamide]",105.413
5,"Cc1cc(CNC(=O)CCl)[nH]n1 [7-L22, 2-chloro-N-[(3-methyl-1H-pyrazol-5-yl)methyl]acetamide]",91.7231
6,"CN(Cc1ccccc1)S(=O)(=O)c1ccc(NC(=O)CCl)cc1 [5-K08, N-{4-[benzyl(methyl)sulfamoyl]phenyl}-2-chloroacetamide]",97.1735
7,"CCc1cccc(CC)c1NC(=O)CCl [4-F10, 2-chloro-N-(2,6-diethylphenyl)acetamide]",103.86
8,"CC(Cl)C(=O)N1CCCc2ccc(N(C)C)cc2C1 (stereo not shown) [7-C15, 2-chloro-1-[8-(dimethylamino)-2,3,4,5-tetrahydro-1H-2-benzazepin-2-yl]propan-1-one]",74.2772
9,"C=CC(=O)NC1CCN(Cc2ccccc2)C1 (stereo not shown) [1-N15, N-(1-benzylpyrrolidin-3-yl)prop-2-enamide]",87.145
10,"CCc1cccc(CC)c1NC(=O)C(C#N)=Cc1ccc(C#N)cc1 [9-O15, 2-cyano-3-(4-cyanophenyl)-N-(2,6-diethylphenyl)prop-2-enamide]",87.2196
11,"C=CC(=O)N1CCC(C(=O)N(C)Cc2cc(C(C)(C)C)[nH]n2)CC1 [2-F10, N-[(5-tert-butyl-1H-pyrazol-3-yl)methyl]-N-methyl-1-(prop-2-enoyl)piperidine-4-carboxamide]",88.4975
12,"C=CC(=O)NCc1nc2ccccc2s1 [1-I12, N-[(1,3-benzothiazol-2-yl)methyl]prop-2-enamide]",86.5471
13,"Cc1cccc(C)c1NC(=O)C(C#N)=Cc1ccc(C(=O)O)cc1 [9-G17, 4-{2-cyano-2-[(2,6-dimethylphenyl)carbamoyl]eth-1-en-1-yl}benzoic acid]",85.86
